In the supplement of paper PMC11417369:
± gives the standard deviation of the averaged measurements. The list shows a part of the results.

tested on: PfAP2-G AP2 domain (GST-tagged); assay: gcPBM binding intensity (ln(normalized median fluorescence intensity)); higher = stronger DNA binding
How it was run: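 Probes on an Agilent 4 × 180k array were primer-extended, double-stranded and 36 bp long, taken from intergenic genomic regions, with negative controls added. GST-tagged P. falciparum DNA-binding domains from E. coli, about 25 μg on average, were applied to the array for 1 h in 1× PBS containing 1% milk, 0.2 mg/ml BSA, 0.5% salmon testes DNA and 0.03% Triton X-100. Binding intensity, obtained after Alexa488 anti-GST antibody detection and a 488 nm scan, is the highest Masliner-normalised natural-log median intensity across replicate spots of either probe orientation.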

Sequence	gcPBM binding intensity (ln)
TGTATAAACCCACGTACACACACTAAGTATATCCAA [CACACA_site1605]	11.3 ± 0.77
ATTTATTATATATAGTGTACGTTCTTAATTATAATT [XGTACX_site7480]	11.3 ± 0.73
AATAAAATATACTATTGTACATATGGAACTACTTGA [XGTACX_site8928]	10.9 ± 0.33
TTGTTTTTAGTTTATACACACCATATTAAAATAATG [CACACA_site5675]	10.4 ± 0.26
TATATAATATATTAATGTACTTAAAATATATTCTAT [XGTACX_site1235]	11.1 ± 0.89
TTGTATTACATAAATGTTCTTTATTATTTGATAAAA [CACACA_negctrl_site903]	9.76 ± 0.11
AATATATTTTTTTTTTGTACATATTGTAAAATAATA [XGTACX_site6805]	11 ± 0.62
ATATATTAATATACTCGTACATATTCTTATTGTGTA [XGTACX_site3728]	10.9 ± 0.58
TTCTCAAAGAAGAAAAAGTTTTTTTAATTTTTCTTT [XGTACX_negctrl_site543]	9.1 ± 0.62
AACCAATTATATTTACGTACGTACGGTTTTTTATAT [XGTACX_site1291]	11.5 ± 0.64
AATAAAAAATATAACACAAATATGTATATATATATA [TGCATGCA_negctrl_site245]	9.82 ± 0.37
ACATATAAAATGTATACACACAAATATTACATATAT [CACACA_site1472]	10.1 ± 0.11
CAAAAAAAAAAAAAAAATAAATAAAGGAAATAAAAA [CACACA_negctrl_site20]	9.66 ± 0.085
AAAAAAAAAAAAACAAGTACAAAGGATAGAAAAAAA [XGTACX_site4133]	11.2 ± 0.71
ATAGAATATTGATATTGTACGTTATCTTAAAACAAT [XGTACX_site1702]	11.1 ± 0.73
ATAAGAACGTCTATGTGTACGCAGCAAAACTGAGTT [XGTACX_site6385]	11.4 ± 0.88
GTGTAGTTAAAAAAAAGTACAGATTTTTTTTTTTTT [XGTACX_site849]	11.5 ± 0.88
TATACATTTATGTACACACACATATCTGTATATTTA [CACACA_site5617]	11.5 ± 0.97
TTTTGTATATATCACATTAAAAGAAAAAAATATATG [GTGCAC_negctrl_site120]	10.1 ± 0.26
GTATGTGTATGTGTATGTACATATGTATGTATAAAA [XGTACX_site8191]	11.2 ± 0.69
CACATTTAGAAATAGTTTTATTTTGTATATTCTATT [CACACA_negctrl_site1382]	10.03 ± 0.078
TCCTCAAAAAAATAAAATAATTTATACTTTTTTAAA [GTGCAC_negctrl_site724]	9.52 ± 0.23

Sequence	gcPBM binding intensity (ln)
TATATATATTTCCAGTGTACTTATTTTTTAATCAAT [XGTACX_site8220]	11.5 ± 0.89
ATTTTTTTGGAATTCACACACAAAAAAAAAAATAAA [CACACA_site2081]	10.2 ± 0.33
TTCAAAAGATATATCGTGCACATATATATGATGAAA	10.1 ± 0.26
AATTAGACATAATATACACACATATATTATATATAT [CACACA_site2691]	9.68 ± 0.2
GCAAAAACAAACGTCACACATACAAAGGCCGTGTAA [CACACA_site6043]	10.01 ± 0.042
TGGAGATAAAATAAAACACACACATATATATATATA [CACACA_site8683]	9.97 ± 0.35
ATACATTCTTATTACTGTACAGGGTTAATTATTTGT [XGTACX_site948]	11 ± 0.62
ATTATTTTATTTATTGGTACGTAATTGTAGATTTCT [XGTACX_site3697]	11 ± 0.64
ATGTTGAGTATATATACACACATACAGATATATATA [CACACA_site4967]	10.1 ± 0.24
TCCACACAATTTATAACATGCAAAAAGGCAATAATA [TGCATGCA_site773]	9.98 ± 0.23
TAGGTATATAAATAATGTACATATAAACTATATAGA [XGTACX_site2597]	11.1 ± 0.51
ATAAAATAAATATAACCACACACGAAAGAGAGAGAA [CACACA_site9075]	10.09 ± 0.057
TTTTTAGGAAAGGCGGCACACATTTATATATTTATT [CACACA_site3672]	9.95 ± 0.071
TTCGCCCTAAATAGAGTGCATTATATATATTAATAT	10.04 ± 0.021
TTCCAACCAATACAAACATGCATTTGAAAAAATGTA [TGCATGCA_site119]	9.85 ± 0.071
TTTATTTTATCATTTGCACACGCACGCCCACATAAA [CACACA_site353]	11.1 ± 0.82
CAAAATATATTGAATTGTACATAAAAATAAAAATTA [XGTACX_site4193]	11.1 ± 0.73
AGCAGTCAGCAGGACAGTACACAGTAGCCAGTAACT [XGTACX_site1999]	11.1 ± 0.74
ATTAATATATTTACCACACACCCATTTCGATTTTAT [CACACA_site3605]	10.2 ± 0.16
ATATGTAAAATATGGTGTACAATCAAATAAAAAAAA [XGTACX_site6270]	11.6 ± 0.95
CATATAAAAGGACACACACACACATATATATATATA [CACACA_site4674]	11.3 ± 0.79
TATTTTATTTTTTGTTGTACATATATATTATATATA [XGTACX_site4513]	11.3 ± 0.73

Sequence	gcPBM binding intensity (ln)
GATATATTACTTAAAATACACACCATGGAAAAGTTT [CACACA_site2606]	10.18 ± 0.035
GAATATGTTAACATTTGTACATAAAATTTTTTACAA [XGTACX_site2444]	11 ± 0.58
ATGTTTAAATTTTTCAGTACATATATTCTAGTAAAA [XGTACX_site1010]	11.1 ± 0.8
ATGGTTTTTATTTTATGTACTTACTAAAATGAATAA [XGTACX_site4317]	11.4 ± 0.88
TACATAAAAATATATGCATGTTCTTATTTAATAAAA [TGCATGCA_site743]	9.78 ± 0.33
AAAATATTATTACAGAAACAAAAAGAAAAATATATA [GTGCAC_negctrl_site285]	9.56 ± 0.12
AATATATATATATATCCACACACATACATATATTAA [CACACA_site7907]	9.76 ± 0.17
TATACGTATTTTATATGTACACATATACATATTTAT [XGTACX_site5301]	11.4 ± 0.79
TTTTCTTTTAAGTTTGTTTTACACTTTTTATTTTGA [CACACA_negctrl_site1581]	9.825 ± 0.092
AATATATGGTTTCATGATATTAAATTCAATTTAATG [GTGCAC_negctrl_site370]	9.97 ± 0.099
AAATATAAATATACTCGTACATATATATATATATAT [XGTACX_site6940]	11 ± 0.73
TGTTACATAAAATGCACACTTTCAAATATGCTAATA [CACACA_site2925]	9.99 ± 0.2
AAAAAAATCTCCAGTGTGCACAATCACATAATATAT [GTGCAC_site9833]	10.5 ± 0.18
GAGATAAAATAAAACACACACATATATATATAGAAT [CACACA_site2197]	9.855 ± 0.035
TATAAGCTAAGTTGTTGTACAAAAAGGAAAAGTATA [XGTACX_site3741]	11.1 ± 0.59
ACAATATAAAAAAATTGTACATAATATATAATATTA [XGTACX_site1040]	10.9 ± 0.48
CATGCTTATATGTGCACACACAAAAGAAAAGAAAAA [CACACA_site1655]	10.6 ± 0.62
ACTATATTTCATAACAGTACATATTCCTGAAACATC [XGTACX_site4924]	10.8 ± 0.33
TACCTTATGTTATATACACACATATAACATAATATA [CACACA_site6741]	9.92 ± 0.21
TTCCTTTGTTGTCGTTGTACTTATATGGTTATAATT [XGTACX_site3082]	11.3 ± 0.82
TATACATAAAAAAATTTTACCAGGTTAATACAAATA [CACACA_negctrl_site1171]	10.08 ± 0.085
ATTTAGAAAAATAAAACACACATATATCTGTAAATA [CACACA_site6119]	9.925 ± 0.021

Sequence	gcPBM binding intensity (ln)
ATATATATATATAGTAGTACTCTCTCTGTATATATA [XGTACX_site3754]	11.3 ± 0.75
ATCATTCTTAAACCGTGTACTTATTATTTTTTTTTT [XGTACX_site2798]	11.4 ± 0.84
TCTAATACACAATGTTGTACATATTAATATATATGT [XGTACX_site2931]	11.5 ± 0.89
AAATGACTATATAAAAGTACTAGAAAGTATAAATAT [XGTACX_site944]	10.9 ± 0.38
AAAATACACGATAGTTGTACATTAAATGTATACAAT [XGTACX_site360]	11.1 ± 0.61
CATCCGTTGATATATGCATGCATATTGTTATTACCA [TGCATGCA_site868]	10.01 ± 0.064
ATATAAAAAAAAAATTGTACAAAAATATATACATAT [XGTACX_site469]	10.9 ± 0.26
GCATATATGGATATATAGGTATATATAAATGCAATA [GTGCAC_negctrl_site24]	9.71 ± 0.24
CCTCTCATTTTATATAGTACATATTTCAAAAAAAAA [XGTACX_site488]	10.9 ± 0.76
AGGAGGATAGTTCACAGTACCCAGTAACTCTACGGA [XGTACX_site1997]	10.7 ± 0.37
TATAAAGATATAAATGCACACGTATTAAAAAAAAAA [CACACA_site8223]	10.3 ± 0.18
TAATTTTTTTTAAACACACACATTACATTCAAAAAT [CACACA_site127]	10.1 ± 0.26
TTCACTAATAAATACGCACACATATACATATATATA [CACACA_site1383]	10.5 ± 0.43
TTTCAAATATATATAGCACACAAGGTATAATATAAA [CACACA_site877]	9.895 ± 0.021
TTTTAATTAGTACAAACACACATATACACCCAAAAA [CACACA_site5422]	11.4 ± 0.93
ATATAAAAAAGGGAGGTAAATGAATGTGAAACCCAA [GTGCAC_negctrl_site359]	10.2 ± 0.13
CTAATATAGGTATGCACACACAATATGTACATATTT [CACACA_site7558]	11.5 ± 0.7
TAATTGTAGACATGCACACACAAATATTATATATGT [CACACA_site845]	10.14 ± 0.064
TATATATGTATATATTGTACTTTAAGACAAATATAT [XGTACX_site1052]	11.1 ± 0.65
AATATTTTTCAATTTCATGTGCATTCATTGAAGTTA [CACACA_negctrl_site1232]	9.78 ± 0.11
TTCTTAAATATATTCAACATACATAATATATAATCT [CACACA_negctrl_site1806]	9.68 ± 0.13
CGTTATATAATAAAGGTGCATAGATATATCATTATA [GTGCAC_site9774]	9.99 ± 0.23
